Assay [1] is described as follows: Cell-based coincidence reporter assay to measure PMP22 gene transcription in S16 Pmp22-F2sN cells - Confirmatory screen (AID 1508646). As to conditions: S16 Schwann cells Pmp22-F2sN, dual luciferase, 24 h. The procedure, abridged:
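S16 rat Schwann cells carrying FLuc-2A-NLuc reporter in Pmp22 3' UTR (500-1,000 cells/well) treated with pinned compounds for 24 h at 37C. Dual-luciferase reads: FLuc luminescence first, then NLuc after Stop&Glo.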

The nature of assay [2]: qHTS Assay for Lipid Storage Modulators (AID 1519). As to conditions: Drosophila S3 cells, BODIPY lipid droplet/cell ratio, laser cytometry, cells loaded with oleic acid. In a few lines: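 Cells seeded at 5,000 per well were treated with compounds over a concentration series and loaded with oleic acid (400 uM, as added). Lipid droplet fluorescence (488 nm excitation, 500-530 nm channel) was read by laser-scanning cytometry and normalized to 20 uM Triacsin C.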

Setting [3] is: measured here: FLuc reporter channel.
[4] abbreviates: measured here: NLuc reporter channel.
[5] abbreviates: measured here: cell count channel max response.
Where [6] appears, read: measured here: lipid channel max response.

The source of these data is PubChem BioAssay (NCATS).

The other results are listed elsewhere or left out. Further columns of the screen follow, without active or inactive calls. Most of these compounds were active or inconclusive in the main read-out, so they are no random draw. Words in brackets tell the shape of the fitted curve; partial curves, single points and poor fits give uncertain potencies.
Tags tell the direction and shape of the fitted curve.

As for `CCOCCCn1c(=N)c(C(=O)NC(C)c2ccccc2)cc2c(=O)n3cccc(C)c3nc21` (configuration not stated), the half-maximal activity concentration (AC50) in assay [1] (setting [3]) was 21.7 µM [falling, partial curve]; in assay [1] (setting [4]), 21.7 µM [falling, partial curve].

Take `Cn1nc(C(=O)NCc2ccc(Cl)cc2)c2c1-c1ccccc1S(=O)(=O)C2`: the AC50 in assay [1] (setting [3]) was 27.3 µM [falling, single point]; in assay [1] (setting [4]) it was 34.3 µM [falling, single point].

For the molecule `COc1cc(-c2noc(-c3ccc(NCc4ccco4)c([N+](=O)[O-])c3)n2)cc(OC)c1OC`, the half-maximal activity concentration (AC50) in assay [1] (setting [3]) is 10.9 µM [falling, full curve, poor fit]; in assay [1] (setting [4]), 15.3 µM [falling, full curve, poor fit]. On to `Cc1ccc(NS(=O)(=O)c2ccc3[nH]c4c(c3c2)CCCC4)cc1N(C)C`, for which the AC50 in assay [1] (setting [3]) was 19.3 µM [falling, partial curve, poor fit]; in assay [1] (setting [4]), 21.7 µM [falling, partial curve]. In the case of `COc1cccc(NS(=O)(=O)c2cc(-c3cnc(C4CC4)o3)ccc2C)c1`, the AC50 in assay [1] (setting [3]) was 1.93 µM [falling, full curve]; in assay [1] (setting [4]) it was 3.85 µM [falling, full curve].

Turning to `Cc1c(C(=O)OC2CCCCC2)[nH]c2c1C(=O)CC(c1ccccc1)C2` (configuration not stated), the half-maximal activity concentration (AC50) in assay [1] (setting [3]) was 24.3 µM [falling, partial curve, poor fit]; in assay [1] (setting [4]), 24.3 µM [falling, partial curve, poor fit]. With `COc1ccccc1CNC(=O)CSc1nnc(C)c2c(C)n(-c3ccccc3)nc12`, the AC50 in assay [1] (setting [3]) was 10.9 µM [falling, partial curve]; in assay [1] (setting [4]), 17.2 µM [falling, partial curve, poor fit]. `COC(=O)c1c(-c2ccc(Cl)cc2)noc1N1CCN(c2ccc(C)cc2C)CC1`: the AC50 in assay [1] (setting [3]) is 19.3 µM [falling, partial curve]; in assay [1] (setting [4]), 19.3 µM [falling, partial curve].

With `Cc1cc(Br)cc2c1N(Cc1ccccc1OC(C)C)C(=O)C2=O`, the AC50 in assay [1] (setting [3]) is 15.3 µM [falling, partial curve]; in assay [1] (setting [4]), 13.7 µM [falling, partial curve].

For `Cc1ccc(C(=O)Nc2ccc(S(=O)(=O)N3CCC(c4nc5ccccc5s4)CC3)cc2)cc1`, the half-maximal activity concentration (AC50) in assay [1] (setting [3]) was 13.7 µM [falling, full curve]; in assay [1] (setting [4]), 15.3 µM [falling, partial curve]. Regarding `Clc1cccc(N2CCN(c3ncnc4c3nc3n4CCCCC3)CC2)c1`, the AC50 is 19.3 µM [falling, partial curve] in assay [1] (setting [3]) and 27.3 µM [falling, partial curve] in assay [1] (setting [4]). `COc1cccc(-n2c(SCC(=O)Nc3c(C)cc(C)cc3C)nc3c([nH]c4ccccc43)c2=O)c1`: the AC50 in assay [1] (setting [3]) was 21.7 µM [falling, partial curve]; in assay [1] (setting [4]), 15.3 µM [falling, partial curve]. As for `CCC1=Nc2cc(C(=O)NCCCOC)ccc2Sc2ccc(Br)cc21`, the AC50 in assay [1] (setting [3]) is 5.44 µM [falling, partial curve, poor fit]; in assay [1] (setting [4]) it was 1.93 µM [falling, full curve, poor fit]. As for `CCCS(=O)(=O)c1ncc(Cl)c(C(=O)Nc2scc(-c3ccccc3)c2C(=O)OCC)n1`, the AC50 was 8.62 µM [falling, full curve] in assay [1] (setting [3]) and 12.2 µM [falling, full curve] in assay [1] (setting [4]).

For `O=C(CSc1nc2c([nH]c3ccccc32)c(=O)n1-c1cccc(Cl)c1)c1ccccc1`, the AC50 is 12.2 µM [falling, partial curve] in assay [1] (setting [3]) and 12.2 µM [falling, partial curve] in assay [1] (setting [4]). Turning to `COc1ccc2nc(NC(=O)c3nc(SCc4cccc(C)c4)ncc3Cl)sc2c1`, the AC50 is 30.6 µM [falling, partial curve, poor fit] in assay [1] (setting [3]) and 27.3 µM [falling, partial curve] in assay [1] (setting [4]). Turning to `CC(=O)N1CCc2c(sc(NC(=O)CSc3ccccc3)c2-c2nc3ccccc3s2)C1`, the concentration at half-maximal activity (AC50) is 10.9 µM [falling, partial curve] in assay [1] (setting [3]) and 15.3 µM [falling, partial curve] in assay [1] (setting [4]). Take `CC(=O)c1c(C)oc2ccc(N(C(=O)Oc3ccccc3)S(=O)(=O)c3ccc(C(C)(C)C)cc3)cc12`: the AC50 in assay [1] (setting [3]) is 9.68 µM [falling, full curve, poor fit]; in assay [1] (setting [4]) it was 9.68 µM [falling, full curve, poor fit]. As for `CCOc1ccc(NC(=O)c2c(NC(=O)Cc3ccccc3)sc3c2CCC(C)C3)cc1` (configuration not stated), the AC50 was 13.7 µM [falling, partial curve] in assay [1] (setting [3]) and 19.3 µM [falling, partial curve] in assay [1] (setting [4]). For `CCOCCCNC(=O)c1ccc(-n2c(-c3ccccc3)cc3c2CCC(C)C3)cc1` (configuration not stated), the AC50 in assay [1] (setting [3]) was 15.3 µM [falling, partial curve]; in assay [1] (setting [4]), 19.3 µM [falling, partial curve, poor fit]. Regarding `COc1ccc(C(C)=O)cc1CSc1nc(Nc2ccc(F)c(F)c2)c2ccccc2n1`, the half-maximal activity concentration (AC50) is 27.3 µM [falling, partial curve] in assay [1] (setting [3]) and 43.2 µM [falling, single point] in assay [1] (setting [4]). As to `O=C(NCCCN1CCN(c2ccccc2)CC1)c1ccc2nc(CCc3ccccc3)oc2c1`, the half-maximal activity concentration (AC50) in assay [1] (setting [3]) is 4.32 µM [falling, full curve, poor fit]; in assay [1] (setting [4]), 34.3 µM [falling, partial curve]. With `CCc1ccc(-c2nc(CN3CCC(C(=O)NCCc4ccc(Cl)cc4)CC3)c(C)o2)cc1`, the AC50 was 24.3 µM [falling, partial curve] in assay [1] (setting [3]) and 30.6 µM [falling, partial curve] in assay [1] (setting [4]). Consider `O=C(NCCSc1c(-c2ccc(Br)cc2)[nH]c2ccccc12)c1ccc(S(=O)(=O)N2CCOCC2)cc1`, for which the AC50 is 8.62 µM [falling, single point] in assay [1] (setting [3]) and 7.69 µM [falling, partial curve, poor fit] in assay [1] (setting [4]).

As for `CCOC(=O)c1cc2c(=O)n3ccccc3nc2n(CC(C)C)c1=NC(=O)COc1ccc(Cl)cc1`, the AC50 was 24.3 µM [falling, partial curve] in assay [1] (setting [3]) and 24.3 µM [falling, partial curve] in assay [1] (setting [4]).

Consider `COc1ccccc1Nc1c2c(nc3ccc(NC(=O)/C=C/c4cccc(OC)c4OC)cc13)CCCC2`, for which the AC50 in assay [1] (setting [3]) is 6.85 µM [falling, full curve]; in assay [1] (setting [4]) it was 8.62 µM [falling, full curve]. On to `CCOc1cc(CNc2ccc(O)cc2)cc(Br)c1OCc1ccccc1`, for which the AC50 is 13.7 µM [falling, full curve] in assay [1] (setting [3]) and 15.3 µM [falling, partial curve] in assay [1] (setting [4]). As for `Cc1ccc(NC(=O)Cn2c(=O)n(Cc3ccc4c(c3)OCO4)c(=O)c3ccc(C(=O)NC4CCCCC4)cc32)c(C)c1`, the half-maximal activity concentration (AC50) is 21.7 µM [falling, partial curve] in assay [1] (setting [3]) and 27.3 µM [falling, partial curve, poor fit] in assay [1] (setting [4]). For `COc1ccc(OC)c(NC(=O)CSc2c3c(nc4ccccc24)CCCC3)c1`, the AC50 was 12.2 µM [falling, partial curve] in assay [1] (setting [3]) and 12.2 µM [falling, partial curve] in assay [1] (setting [4]). For `O=C(CCS(=O)(=O)c1nc(-c2cccs2)cc(C(F)(F)F)n1)Nc1ccc(Br)cc1`, the AC50 in assay [1] (setting [3]) was 10.9 µM [falling, partial curve]; in assay [1] (setting [4]) it was 10.9 µM [falling, full curve].

`COC(=O)c1c(-c2ccc(Cl)cc2)noc1N1CCN(c2cc(C)ccc2C)CC1`: the AC50 in assay [1] (setting [3]) was 17.2 µM [falling, partial curve]; in assay [1] (setting [4]), 17.2 µM [falling, partial curve]. Take `CCOC(=O)c1ccc(N2C(=O)c3n[nH]c(-c4ccco4)c3C2c2ccc(O)c(OC)c2)cc1` (configuration not stated): the AC50 in assay [1] (setting [3]) is 19.3 µM [falling, partial curve]; in assay [1] (setting [4]), 19.3 µM [falling, partial curve].

Turning to `O=C(CSc1nc2c(sc3ccccc32)c(=O)n1CCCC(=O)NC1CCCC1)Nc1ccc(F)cc1`, the AC50 in assay [1] (setting [3]) was 9.68 µM [falling, partial curve]; in assay [1] (setting [4]), 12.2 µM [falling, full curve]. For `O=C(Cn1c(-c2cccs2)cc2ccccc21)NCCCN1CCN(c2ccc(F)cc2)CC1`, the half-maximal activity concentration (AC50) was 19.3 µM [falling, partial curve, poor fit] in assay [1] (setting [3]) and 21.7 µM [falling, partial curve] in assay [1] (setting [4]).

With `COc1cccc(NC(=O)N(Cc2cn(C)c3ccccc23)C2CCCCCC2)c1`, the AC50 in assay [1] (setting [3]) was 34.3 µM [falling, single point]; in assay [1] (setting [4]) it was 27.3 µM [falling, partial curve]. As to `O=C(Nc1ccc(Cl)cc1)c1cnn2c1NC(c1ccccc1)=CC2c1ccccc1` (configuration not stated), the AC50 in assay [1] (setting [3]) is 38.5 µM [falling, single point]; in assay [1] (setting [4]), 48.5 µM [falling, single point].

As to `COc1ccc(-c2nc3c(C#N)c[nH]n3c2NC2CCCC2)cc1`, the concentration at half-maximal activity (AC50) in assay [1] (setting [3]) is 43.2 µM [falling, single point]; in assay [1] (setting [4]), 43.2 µM [falling, single point]. Consider `CCc1cc2c(c(CC)n1)CCC(=O)N2Cc1ccc(-c2ccccc2-c2nn[nH]n2)cc1`, for which the max response in assay [2] (setting [5]) is 93.5%; in assay [2] (setting [6]), 119%.

For the molecule `CN[C@H](CC(=O)O)C(=O)O`, the values for the max response in assay [2] (setting [5]) and in assay [2] (setting [6]) were 51.3% and 51.8%, respectively. Regarding `O=c1cnc2cnc(Nc3ccccc3)nc2n1C[C@H]1CCCO1`, the max response in assay [2] (setting [5]) is -6.28%; in assay [2] (setting [6]), -59.7%. Turning to `COc1cc2c(Cc3c4c5c(cc(OC)c(OC)c5c5c(OC)c(OC)ccc35)CCN4C)c3c4c(cc(OC)c(OC)c4c2cc1OC)CCN3C`, the max response in assay [2] (setting [5]) is -79.7%; in assay [2] (setting [6]), -91.3%. For the molecule `NC(=O)OCC(COC(N)=O)c1ccccc1`, the max response was 44% in assay [2] (setting [5]) and 46.7% in assay [2] (setting [6]). For `NC1=NCCCC1`, the max response in assay [2] (setting [5]) was -9.83%; in assay [2] (setting [6]), -10.7%. Take `CC[C@H](C(=O)[C@H](C)[C@H](O)[C@H](C)CCc1ccc(C)c(O)c1C(=O)O)[C@H]1O[C@](CC)([C@@H]2CC[C@@](O)(CC)[C@H](C)O2)C[C@H]1C`: the AC50 in assay [2] (measured here: lipid (BODIPY) channel AC50) was 14.1 µM [falling, partial curve, poor fit].
